PubChem BioAssay AID1508623 (National Center for Advancing Translational Sciences (NCATS), 2021)
Out of some 48,000 compounds screened, about 450 (0.94%) were called active. Roughly 19% stayed inconclusive and do not appear here. Calls follow the shape of the dose curve; as a rule, active = well fitted inhibition curve with a large enough effect; inconclusive = small, poorly fitted or top-dose-only effect; inactive = no such curve, though single readings can be large or run the other way. This is one part of the list.

assay: Primary qHTS for Identification of Small Molecule Inhibitors of Huntingtin Promoter Activity; settings: HEK293 HTT promoter firefly luciferase reporter (activity 0% = vehicle and -100% = no light), 24 h; series mostly up to 57.5 µM; activity change, negative = inhibition: at the top concentration; also: nearly all actives have a fitted effect of over 50% in size
Method in brief: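 Firefly luciferase readout (Dual-Glo, 10 min RT) after 24 h, 37 °C compound exposure (final up to 57.5 uM) of HEK293 reporter cells cultured 24 h beforehand; PTC124 at 50 uM final as control inhibitor; activity scaled vehicle 0%, zero RLU -100%.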

Activity change, negative = inhibition, inactive:
CCOc1ccc(CCNC(=O)CCCn2nc(C)c3sc4ccccc4c3c2=O)cc1OCC -23.7%
CCn1c2ccccc2c2nnc(SCCN3CCCCC3)nc21 -8.27%
COC(=O)CC1c2cc(OC)c(OC)cc2CCN1C(=O)Nc1ccc(C)cc1Cl (centres undefined) -4.15%
COc1ccccc1Nc1nn2c(=O)c3ccc(C(=O)NCCCOC(C)C)cc3nc2s1 -14.8%
CCOc1ccc(OCC)c(NC(=O)Cn2ncc3c4ccccc4n(Cc4ccccc4)c3c2=O)c1 0%
CCC1CN(C(=O)N2CCC(C(=O)NCCN(C)C)CC2)c2ccccc2O1 (centres undefined) -0.501%
Cn1ccc2cc(S(=O)(=O)N3CCCN(C(=O)Nc4ccccc4Br)CC3)ccc21 -34.4%
Cc1ccc(NC(=O)c2cnc(SCC(=O)N3CCOCC3)n(C)c2=O)cc1 -10.9%
COc1cccc(NC(=O)CN(C)S(=O)(=O)c2ccc3nc(C)sc3c2)c1 -25.3%
COc1ccc(C)cc1N(C)C(=O)c1c(C)oc2ncnc(N3CCOCC3)c12 -2.85%
CN(c1ccc(Cl)cc1)S(=O)(=O)c1nnc(NC(=O)C2CCCCC2)s1 -4.1%
CCOc1ccccc1NC(=O)c1c(NC(=O)c2ccccc2C)sc2c1CCC(C)C2 (centres undefined) -3.73%
COC(=O)c1c(C)sc(-c2c(-c3ccc4c(c3)OCCO4)[nH]c3c2c(=O)n(C)c(=O)n3C)c1O -15.4%
CCNC(=O)c1cnc2sc(N3CCCCCC3)nn2c1=O 32.1%
CCC(C)NC(=O)c1cnn(-c2ccc(Cl)cc2)c1C1CCN(C(=O)OC(C)(C)C)CC1 (centres undefined) -4.9%
Nc1nnc(SCC(=O)Nc2ccccc2C(F)(F)F)s1 -8.86%
COC(=O)c1n[nH]n(-c2ccccc2)c1=O -0.275%
CN(C1CCCCC1)S(=O)(=O)c1ccc2c(c1)c(=O)c(C(=O)NCCc1ccccc1)cn2C -1.52% [at 11.5 µM]
Cc1ccn2c(Nc3ccc4c(c3)OCCO4)c(-c3ccc(Cl)s3)nc2c1 22.1%
Cc1cccc(NC(=O)C2CCCN(S(=O)(=O)c3cnc[nH]3)C2)c1C (centres undefined) -33.6% [at 11.5 µM]
Cc1ccc2c(c1)cc(C(=O)Nc1ccc(F)cc1F)n2C 14.4%
CCOC(=O)c1cc(NC(=O)c2ccc(F)cc2)c(=O)n2c1oc1ccccc12 3.34%
Cc1ccc(C(=O)N(Cc2ccc(N(C)C)cc2)Cc2ccco2)cc1 -18.9%
Cn1c(=O)c2cc(C(=O)N3CCN(c4ccc(Cl)cc4)CC3)sc2c2ccccc21 -5.3%
Cc1oc(-c2ccc(C(=O)Nc3cc(F)ccc3F)cc2)nc1COc1ccccc1 -36.1%
CCNC(=O)Cc1ccc(NC(=O)N2CCCCc3ccccc32)cc1 -3.49%
CCN(CC)c1nn2c(=O)c(C(=O)NCc3ccc(F)cc3)cnc2s1 5.99%
CCCn1c2ccccc2c2cnn(CC(=O)NCCc3ccc(OC)cc3OC)c(=O)c21 -9.98%
O=C1c2ccccc2-c2n[nH]c3cccc1c23 8.6%
Cc1nc(-c2ccccc2)sc1CCNS(=O)(=O)c1ccc(Br)cc1 -40.2%
O=C(c1ccc(OCCN2CCCCC2)cc1)c1c(-c2ccc(O)cc2)sc2cc(O)ccc12
CCn1nc(C)c(CCN(C)C(=O)Nc2cc(Cl)ccc2C)c1C 19.2%
Cc1ccc(CNC(=O)CCS(=O)(=O)c2cc(Br)cc3c2N(C(=O)C2CC2)CC3)cc1 -7.27%
COc1cc2c(c(OC)c1OC)-c1ccc(OC)c(=O)cc1[C@@H](NC(C)=O)CC2
O=C(Nc1ccc(Cl)cc1)N1CCN(c2ccc3nnc(-c4ccc(F)cc4)n3n2)CC1 -0.396%
Cc1ccc(-n2nc(CO)c(C(=O)NCc3cccs3)n2)cc1 -25.9%
Cc1cc(C)c(S(=O)(=O)NCC(c2cccs2)S(=O)(=O)c2ccccc2)c(C)c1 (centres undefined) -29.4%
Cc1ccc(NCc2nc3ccccc3n2CCOc2ccccc2)cc1 -4.16%
Cc1cc(NC(=O)Nc2nc3c(s2)CCCCCC3)ccc1Br -5.87%
COc1ccccc1Nc1cc(C(=O)NCc2cccs2)c2ccccc2n1 -18.2%
CCC(=O)N1CCc2cc(S(=O)(=O)CCC(=O)NCc3ccccc3OC)ccc21 -1.34%
NC(=O)CSc1ncc2c(n1)-c1ccccc1N(Cc1cccc(F)c1)S2(=O)=O -14.6%
COc1ccc2nc3oc(C(=O)NCc4ccccc4OC)cc3cc2c1 22.6%
COc1ccccc1-c1nnc(C2CCN(C(=O)c3ccc(C)cc3)CC2)o1 -15%
COc1ccc(-c2noc(-c3nnn(-c4cc(C)ccc4C)c3N)n2)cc1 4.33%
CN(C)S(=O)(=O)c1ccc2c(c1)N(CC(=O)N1CCN(c3ccc(F)cc3)CC1)CCS2 -19%
CC1CCN(c2ccc(-c3nc(C(C)C)no3)cc2[N+](=O)[O-])CC1 22.8%
CCN(CC)CCNC(=O)c1ccc(Cn2c(=O)c3cccn3c3cccnc32)cc1 5.35%
Cc1cc(NC(=O)CSc2ncc(C(=O)Nc3ccc(F)cc3)c(=O)n2C)no1 -8.7%
O=c1oc2ccc(Br)cc2cc1-c1csc(-c2ccc(Cl)cc2)n1 4.09%
O=C(CC(NCc1cccnc1)C(=O)O)Nc1ccc(F)cc1 (centres undefined) -1.06%
C=Cc1ccc(Cn2c(C(=O)O)c(CNCc3cc(Br)ccc3OC)c3ccc(C)cc32)cc1 2.14%
Cc1cccc(N2CCN(C(=O)CS(=O)(=O)c3cccc4nsnc34)CC2C)c1 (centres undefined) -13.3%
CCCN1C(=O)C2(c3ccccc31)c1c(oc3ccccc3c1=O)C(=O)N2CCO (centres undefined) -8.17%
CC(CN1c2ccccc2Sc2ccccc21)N(C)C (centres undefined) -7.49%
COc1ccc(-c2cc3ccc(O)c(CN4CCC(C)CC4)c3oc2=O)cc1OC -4.73%
Cc1cccc(Cn2cccc2CNS(=O)(=O)c2ccc(Br)cc2)c1 -14.1%
COc1cc(-c2nnc(SCCOc3cc(C)cc(C)c3)o2)cc(OC)c1OC -6.54%
Cc1ccc(C(C)C)c(OC(C)C(=O)NCC2(N(C)C)CCCCC2)c1 (centres undefined) -15.1%
Cc1ccccc1CN1C(=O)c2ccccc2S(=O)(=O)c2ccc(C(=O)OCC3CCCO3)cc21 (centres undefined) -2.83%
COc1ccc(S(=O)(=O)Nc2cc(S(=O)(=O)c3ccccc3)c(O)c(C)c2C)cc1 -16.5%
CC(NC(=O)CN1C(=O)c2cccnc2Oc2ccc(Cl)cc21)c1ccccc1 (centres undefined) 5.71%
Cc1cc(OC(C)C(=O)Nc2sc3c(c2C(N)=O)CCCC3)ccc1Cl (centres undefined) 8%
CCOc1ccccc1CNc1nc2nc(C)cc(C)n2n1 -2.35%
Cc1ccc(Cn2c(C(C)NC(=O)c3ccccc3)nc3ccccc32)cc1 (centres undefined) -21.8%
CCOC(=O)c1c(C)[nH]c(CCC(=O)Nc2ccc(OC)c(OC)c2)c1C -12.1%
CC(C)NC(=O)CCC(=O)N1Cc2ccccc2Oc2ncccc21 -1.43%
Cn1ccc2cc(S(=O)(=O)N3CCN(C(=O)Nc4ccc(F)cc4F)CC3)ccc21 -28.9%
CC1Cc2ccccc2N1S(=O)(=O)c1nnc(NC(=O)c2ccccc2)s1 (centres undefined) -23%
NS(=O)(=O)c1ccc(NC(=O)C2Cc3ccccc3N2C(=O)c2ccccc2)cc1 (centres undefined) -1.68%
CCCCN(CC)CCCNC(=O)c1nn(C)c2c1CSc1ccccc1-2 -15.7%
COc1ccc(OC)c(CCNC(=O)Cn2ncc3c([nH]c4ccccc43)c2=O)c1 1.33%
COCCCNC(=O)CCC(=O)NNc1nc2ccccc2c2nc(C)nn12 -6.47%
CC(C)Oc1ccc(-c2nc3c(C#N)c[nH]n3c2NC2CCCCC2)cc1 12.3%
COc1ccc(N2CC(NC(=O)C(c3ccccc3)c3ccccc3)CC2=O)cc1OC (centres undefined) 3.17%
COc1cccc(-c2nc(S(=O)(=O)c3ccc(C)cc3)c(N3CCCCC3)o2)c1 -5.65%
COc1ccccc1CNC(=O)c1ccc2nc(CCc3ccccc3)oc2c1 -23.2%
COc1ccc(-c2nc(SCC(=O)Nc3c(C)cc(C)cc3C)n[nH]2)cc1 -14.9%
CCOC(=O)c1c(C)oc2ncnc(Nc3ccc(OC)c(OC)c3)c12 -9.21%
COc1ccc(Cn2c(=O)c3cccnc3n(Cc3cccc(F)c3)c2=O)cc1 -34.7%
COC(=O)c1ccc(C(=O)OC)c(NC(=O)c2ccc(-c3ccccc3)s2)c1 11.4%
CCOc1cc(N2CCC(O)CC2)ccc1Nc1ncc2c(n1)N(C)c1ccccc1C(=O)N2C 23.6%
CCOC(=O)c1ccccc1NC(=O)CSc1nccn1Cc1ccco1 -5.68%
COc1ccccc1NC(=O)c1c(C)cc(C)nc1SCC(=O)c1ccc(Cl)cc1 -25%
CC(C)Oc1ccc(C(=O)N(Cc2ccco2)Cc2cccs2)cc1 -14.2%
Cc1cccc(C)c1NC(=O)c1sc(-n2nc(C)c(Cc3ccccc3)c2C)nc1C -2.07%
O=C(CSc1ncc(S(=O)(=O)c2ccc(Cl)cc2)c(=O)[nH]1)Nc1cccc(C(F)(F)F)c1 -4.45%
Cc1cc(OCC(=O)N(Cc2ccc(N(C)C)cc2)CC2CCCO2)ccc1Cl (centres undefined) -25.3%
COc1ccc(-c2cc3nc(C)c(CCC(=O)NC4CCCCC4)c(C)n3n2)c(OC)c1 -14.5%
O=C(c1cccn1-c1nnc(N2CCCC2)s1)N1CCN(c2ccc(Cl)cc2)CC1 -25.8%
COc1cc(C2Nc3c(C)cc(C)cc3-c3cc(C)nn32)cc(OC)c1O (centres undefined) -21.6% [at 11.5 µM]
Cc1ccc2c(c1)C(c1ccccc1)N(C(=O)Cc1ccc(F)cc1)CC(=O)N2 (centres undefined) -27.3%
Cn1c(=O)[nH]c2cc(-c3noc(-c4ccc(C#N)cc4)n3)ccc21 -2.67%
Cc1cc(C)n(-c2nnc(Nc3ccc(C)c(Cl)c3)c3ccccc23)n1 -29.8%
COc1ccc(C2=NC(C)(C)N(CC(=O)Nc3cccc(C)c3)C2=O)cc1 -28.8%
CN(C)C(=O)c1c(NC(=O)c2ccccc2F)sc2c1CCCC2 -13.6%
CC(=O)Nc1ccc(S(=O)(=O)NCC2CCC(C(=O)NCCN(CC(C)C)CC(C)C)CC2)cc1 (centres undefined) -15.4%
O=C(COc1ccc2ccccc2c1)NC1CC(=O)N(c2cccc(F)c2)C1 (centres undefined) -10.3%
Nc1nc2ccc([N+](=O)[O-])cc2s1 10% [at 116 µM]
